According to patent US20250114416A1, “ANTIVIRAL C[…] EXTRACT AND STEROID COMPOUND AS ACTIVE INGREDIENTS” (priority 2022, published 2025):

Tested on: Influenza A virus
Settings: examples using ginseng (Table 1), non-treated control = 100

Compound: C[C@@H]1C[C@H]2[C@@H]3CCC4=CC(=O)C=C[C@]4(C)[C@@]3(F)[C@@H](O)C[C@]2(C)[C@@]1(O)C(=O)CO [Comparative Example 4, Dexamethasone]
- Relative virus titer Influenza A virus: 102 ± 1.9

Compound: C[C@]12C=CC(=O)C=C1CC[C@@H]1[C@@H]2[C@@H](O)C[C@@]2(C)[C@H]1CC[C@]2(O)C(=O)CO [Comparative Example 6, Prednisolone]
- Relative virus titer Influenza A virus: 103 ± 1.9

Compound: C[C@]12C=CC(=O)C=C1CC[C@H]1[C@@H]3C[C@@H](O)[C@](O)(C(=O)CO)[C@@]3(C)C[C@H](O)[C@@]12F [Comparative Example 7, Triamcinolone]
- Relative virus titer Influenza A virus: 103 ± 1.9
